# From the supplement of paper PMC8728848
# This is one part of the list.
# How the values were obtained:
# Test in all cases: glycan array binding signal (z-score within array); higher = stronger binding
# Details in all cases: glycan notation: IUPAC condensed, linker removed
# [1] = target: Gal(b1-4)GalNAc(b1-3)[Fuc(a1-2)]Gal(b1-4)GlcNAc
# In short: (§1)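 Glycan array binding is given as a within-array Z-score, which can be read as non-binding when negative. The arrays, 3228 of them, came from the Consortium for Functional Glycomics database and were retained only where the protein sequence was available. Z-scores were averaged across arrays of the same protein sequence at different concentrations or buffers and across linkers.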
# Gal(b1-4)Glc = target: Gal(b1-4)Glc
# In short: as §1
# Gal(b1-4)Glc6S = target: Gal(b1-4)Glc6S
# In short: as §1
# Gal(b1-4)GlcNAc = target: Gal(b1-4)GlcNAc
# In short: as §1
# [2] = target: Gal(b1-4)GlcNAc(a1-6)Gal(b1-4)GlcNAc
# In short: as §1
# Gal(b1-4)GlcNAc(b1-2)Man = target: Gal(b1-4)GlcNAc(b1-2)Man
# In short: as §1
# [3] = target: Gal(b1-4)GlcNAc(b1-2)Man(a1-3)Man(b1-4)GlcNAc(b1-4)GlcNAc
# In short: as §1
# [4] = target: Gal(b1-4)GlcNAc(b1-2)Man(a1-3)[Gal(b1-4)GlcNAc(b1-2)Man(a1-6)]Man(b1-4)GlcNAc(b1-4)GlcNAc
# In short: as §1
# [5] = target: Gal(b1-4)GlcNAc(b1-2)Man(a1-3)[Gal(b1-4)GlcNAc(b1-2)Man(a1-6)]Man(b1-4)GlcNAc(b1-4)[Fuc(a1-6)]GlcNAc
# In short: as §1
# [6] = target: Gal(b1-4)GlcNAc(b1-2)Man(a1-3)[Gal(b1-4)GlcNAc(b1-2)Man(a1-6)][Gal(b1-4)GlcNAc(b1-4)]Man(b1-4)GlcNAc(b1-4)[Fuc(a1-6)]GlcNAc
# In short: as §1
# [7] = target: Gal(b1-4)GlcNAc(b1-2)Man(a1-3)[Gal(b1-4)GlcNAc(b1-2)Man(a1-6)][GlcNAc(b1-4)]Man(b1-4)GlcNAc(b1-4)[Fuc(a1-6)]GlcNAc
# In short: as §1
# [8] = target: Gal(b1-4)GlcNAc(b1-2)Man(a1-3)[GlcNAc(b1-2)Man(a1-6)]Man(b1-4)GlcNAc(b1-4)GlcNAc
# In short: as §1
# [9] = target: Gal(b1-4)GlcNAc(b1-2)Man(a1-3)[GlcNAc(b1-4)][Gal(b1-4)GlcNAc(b1-2)Man(a1-6)]Man(b1-4)GlcNAc(b1-4)GlcNAc
# In short: as §1
# [10] = target: Gal(b1-4)GlcNAc(b1-2)Man(a1-3)[Man(a1-6)]Man(b1-4)GlcNAc(b1-4)GlcNAc
# In short: as §1
# [11] = target: Gal(b1-4)GlcNAc(b1-2)Man(a1-6)Man(b1-4)GlcNAc(b1-4)GlcNAc
# In short: as §1
# [12] = target: Gal(b1-4)GlcNAc(b1-2)Man(a1-6)[GlcNAc(b1-2)Man(a1-3)]Man(b1-4)GlcNAc(b1-4)GlcNAc
# In short: as §1
# [13] = target: Gal(b1-4)GlcNAc(b1-2)Man(a1-6)[Man(a1-3)]Man(b1-4)GlcNAc(b1-4)GlcNAc
# In short: as §1
# [14] = target: Gal(b1-4)GlcNAc(b1-2)[Gal(b1-4)GlcNAc(b1-4)]Man(a1-3)[Gal(b1-4)GlcNAc(b1-2)Man(a1-6)]Man(b1-4)GlcNAc(b1-4)GlcNAc
# In short: as §1
# [15] = target: Gal(b1-4)GlcNAc(b1-2)[Gal(b1-4)GlcNAc(b1-4)]Man(a1-3)[Gal(b1-4)GlcNAc(b1-2)[Gal(b1-4)GlcNAc(b1-6)]Man(a1-6)]Man(b1-4)GlcNAc(b1-4)GlcNAc
# In short: as §1
# [16] = target: Gal(b1-4)GlcNAc(b1-2)[Gal(b1-4)GlcNAc(b1-4)]Man(a1-3)[GlcNAc(b1-4)][Gal(b1-4)GlcNAc(b1-2)Man(a1-6)]Man(b1-4)GlcNAc(b1-4)GlcNAc
# In short: as §1
# [17] = target: Gal(b1-4)GlcNAc(b1-2)[Gal(b1-4)GlcNAc(b1-4)]Man(a1-3)[GlcNAc(b1-4)][Gal(b1-4)GlcNAc(b1-2)[Gal(b1-4)GlcNAc(b1-6)]Man(a1-6)]Man(b1-4)GlcNAc(b1-4)GlcNAc
# In short: as §1
# [18] = target: Gal(b1-4)GlcNAc(b1-2)[Gal(b1-4)GlcNAc(b1-6)]Man(a1-6)[Gal(b1-4)GlcNAc(b1-2)Man(a1-3)]Man(b1-4)GlcNAc(b1-4)GlcNAc
# In short: as §1
binder,measurement,setting,value
BTL (Bryothamnion triquetrum) (protein) ADPICGSSGYSCTTPAILTPKSPGSFPSGYSKVIVTGVGGSYSVYIHRPDGFKVYKASEGGCASFGSYSGGGNSEVGKYGSGGTVVAVACK,glycan array binding signal (z-score),[1],-0.293
same,glycan array binding signal (z-score),Gal(b1-4)Glc,-0.249
same,glycan array binding signal (z-score),Gal(b1-4)Glc6S,-0.256
same,glycan array binding signal (z-score),Gal(b1-4)GlcNAc,-0.206
same,glycan array binding signal (z-score),[2],-0.286
same,glycan array binding signal (z-score),Gal(b1-4)GlcNAc(b1-2)Man,-0.186
same,glycan array binding signal (z-score),[3],-0.192
same,glycan array binding signal (z-score),[4],-0.161
same,glycan array binding signal (z-score),[5],4.92
same,glycan array binding signal (z-score),[6],0.352
same,glycan array binding signal (z-score),[7],0.733
same,glycan array binding signal (z-score),[8],-0.236
same,glycan array binding signal (z-score),[9],-0.195
same,glycan array binding signal (z-score),[10],-0.231
same,glycan array binding signal (z-score),[11],-0.192
same,glycan array binding signal (z-score),[12],-0.244
same,glycan array binding signal (z-score),[13],-0.185
same,glycan array binding signal (z-score),[14],-0.205
same,glycan array binding signal (z-score),[15],-0.279
same,glycan array binding signal (z-score),[16],-0.24
same,glycan array binding signal (z-score),[17],-0.252
same,glycan array binding signal (z-score),[18],-0.127
